Columns and labels:
CD28 mIg [1] = biological target: T1, CD28 mIg (UniProt P10747 19-152); experiment: SPR, CD28-mIgG immobilized, steady-state equilibrium KD
Description: (§1) Surface plasmon resonance (SPR) measurements were performed on a Biacore T100 SPR using HBS-P+ (GE Healthcare) as a running buffer. CD28-mIgG (25 μg/mL in 10 mM sodium acetate, pH 4.0) was directly immobilized onto a CM5 chip using standard amine coupling chemistry (Biacore Amine Coupling Kit, GE Healthcare), with final immobilization levels between 800 and 1900 Ru (resonance units). 2E12 binding domain constructs were injected at 25° C. or 37° C. for 150 seconds at a flow rate of 30 μl/min in a series of concentrations from 10 nM to 1 μM. Dissociation was monitored for 1200 seconds, and the surface was regenerated by injecting 50 mM NaOH for 60 seconds. Binding interactions with the surface were stable through at least 60 regeneration cycles. Data were analyzed using BiaEvaluation for the T100 software (version 2.0, GE Healthcare).
(§2) Surface plasmon resonance was used to measure binding of immobilized CD28 by 2E12 binding domain constructs. […] Binding kinetics of the bivalent 2E12 constructs (e.g., 2E12 mAb, FIGS. 27A-27B) to immobilized CD28 could not be fit to a 1:1 Langmuir binding model, but could be fit with high accuracy to a bivalent analyte binding model (Table 5). Equilibrium dissociation constants (1(D) could be calculated with high accuracy for each construct by fitting the observed response at saturation to a steady-state equilibrium model (Table 5).

CD28 mIg [2] = biological target: T1, CD28 mIg; experiment: SPR, CD28-mIgG immobilized, bivalent analyte model, first on rate ka (I)
Description: as §1, §2

CD28 mIg [3] = biological target: T1, CD28 mIg; experiment: SPR, CD28-mIgG immobilized, bivalent analyte model, first off rate kd (I)
Description: as §1, §2

CD28 mIg [4] = biological target: T1, CD28 mIg; experiment: SPR, CD28-mIgG immobilized, bivalent analyte model, second on rate (avidity); design: unit not given here
Description: as §1, §2

CD28 mIg [5] = biological target: T1, CD28 mIg; experiment: SPR, CD28-mIgG immobilized, bivalent analyte model, second off rate (avidity)
Description: as §1, §2

CD28 mIg [6] = biological target: T1, CD28 mIg; experiment: SPR, CD28-mIgG immobilized, kinetic KD, bivalent analyte model, initial binding at the first site only
Description: as §1, §2

B1: 2E12 SMIP protein (M0039) (other)
chain: VQVQLKESGPGLVAPSQSLSITCTVSGFSLTGYGVNWVRQPPGKGLEWLGMIWGDGSTDYNSALKSRLSITKDNSKSQVFLKMNSLQTDDTARYYCARDGYSNFHYYVMDYWGQGTSVTVSSGGGGSGGGGSGGGGSGGGGSDIVLTQSPASLAVSLGQRATISCRASESVEYYVTSLMQWYQQKPGQPPKLLISAASNVESGVPARFSGSGSGTDFSLNIHPVEEDDIAMYFCQQSRKVPWTFGGGTKLEIKRDQ[human IgG1 Fc with changes not written out]
notes: also called anti-CD28 SMIP protein; bivalent SMIP protein form of 2E12
Q: What does the source list for B1?
A: Kd (CD28 mIg [1]): 19.4 nM; kon (CD28 mIg [2]): 170000 M⁻¹ s⁻¹; koff (CD28 mIg [3]): 0.00411 s⁻¹; ka (II) (CD28 mIg [4]): 0.000138; kd (II) (CD28 mIg [5]): 0.0003 s⁻¹; Kd (CD28 mIg [6]): 24.2 nM

Reference: US20130095097A1 (EMERGENT PRODUCT DEVELOPMENT SEATTLE, published 2013)
